# In PMC12136788:
# Some of the results follow.
# T1: UNK ZnF1-3 (human, UniProt Q9C0B0 31-174)
# T1 sequence: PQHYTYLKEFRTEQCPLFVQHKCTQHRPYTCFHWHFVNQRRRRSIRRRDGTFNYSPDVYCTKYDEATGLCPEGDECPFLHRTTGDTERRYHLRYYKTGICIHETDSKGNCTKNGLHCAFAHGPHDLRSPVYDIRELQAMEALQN
# B1: 65537091_65537211_888_ncRNA_ENSMUSG00000040652_ENSMUST00000153700|mouse|control|control (ssRNA)
# RNA: GGGAGUUCUACAGUCCGACGAUCCUGUUCUUUAUGGAAAACAAUUUCAACGAGUCAACUCCGAGAACACAAUGGGCAACCCUCAACCUGAGCCCCUCAAUGUCCUUCCCUAGACAGCCAGAGACCCUCUCCUCUGUCCCAAGGCAACAGAGGAUUGAGCAUCA
# B2: 154754478_154756338_64_3pUTR_ENSMUSG00000053870_ENSMUST00000066568|mouse|control|control (ssRNA)
# RNA: GGGAGUUCUACAGUCCGACGAUCUAUUGCAACCACAUCCCAGAAUUCUCCAGCUGCCACGGGUUUGCCUCUCAGCUCAGAAAAUCUGCGCAGUUUCCGCAGGGUGGCUUCGCGGAGAGACGCCAUGGCCGACUUCCGGGAGCACAACAGAGGAUUGAGCAUCA
# B3: 186313572_186313692_3588_CDS_ENSG00000047410_ENST00000367478|human|control|control (ssRNA)
# RNA: GGGAGUUCUACAGUCCGACGAUCUGUUGUUUCUUCCAAAUGCUGACGGACUGAUGCCAUUUUUGAAACCUGCUCCUUCGCAGCUUGUAGAGCUUCAACAUCAGCAGCAUGCAGCAUCAAUUCUCUCUCAUACUUAUUCUGAGCCAACAGAGGAUUGAGCAUCA
# B4: chr3:37096630:37096631:-_ENSG00000093167_ENST00000421276|perfect_dup|FALSE|FALSE (ssRNA)
# RNA: GGGAGUUCUACAGUCCGACGAUCUUGUUCCAAGGUAGCUAUGUCUUGUUCUGCUUUCGAAAGCUUGAAUUUGUAUUCACUAAUUUGUCUAUUGGCAUCUCUCUGCAUCUCGAUGAACUGCAAGUCUGAGCCGUUCUGCAGUCCCAACAGAGGAUUGAGCAUCA
# B5: chr5:24309113:24309114:-_ENSMUSG00000028945_ENSMUST00000030787|mus_mus|FALSE|FALSE (ssRNA)
# RNA: GGGAGUUCUACAGUCCGACGAUCUUUUAUUUACAAGUAUACAUUUAACACAAUGAAAUAAACACUGAUAUAUUGAAGCCUAGUUAAUAGUAGUGUAACAUGUGUAUCAUUUUGAUGAUUACAUUAUUUUAAACAACAAACUACCAACAGAGGAUUGAGCAUCA
# B6: chr5:140076784:140076785:+_ENSG00000112855_ENST00000230771|hu_hu|FALSE|FALSE (ssRNA)
# RNA: GGGAGUUCUACAGUCCGACGAUCCCCAGCCUGAGUUGGGGUCUGCAGCAGCACUGCUUCAUAGAUCACUCCUGUAUAGUAGUCUAGGCCCCGAGCCAGGCUGAGGUCAAAGGAGAUCUUAUCAGCAAUUCCAAAUAAAGUCAGCAACAGAGGAUUGAGCAUCA
# B7: chr2:5814250:5814251:-_ENSMUSG00000025816_ENSMUST00000102981|mus_hu|mus_mus_mus_hu_True|1_68 (ssRNA)
# RNA: GGGAGUUCUACAGUCCGACGAUCUUCCUUUCCGGUUUCUGAAUUUCUGGUAGAACUGCACAGAAUGGUUUAAUAACUUCUAAAAAUUUGAUGCCCAUGGCUGCUGCUGGGGAGGCCCAGGGGGAAACCGCGGCCUCGCAGCUGCAACAGAGGAUUGAGCAUCA
# B8: chr16:94690093:94690094:+_ENSMUSG00000040785_ENSMUST00000117648|mus_hu|mus_mus_mus_hu_True|38_68 (ssRNA)
# RNA: GGGAGUUCUACAGUCCGACGAUCGGGCUGGGAUGACGGACACACAGCCUCGAUUCCAGGGGGAAAAAAAAAUAGCCGAUACUAAUUAAAAAGUGUUUUUAUAAUUGGAAAAUCAGAUUACAUCUAUAAAAGAUGAAAAGCAAACAACAGAGGAUUGAGCAUCA
# B9: chr7:140404665:140404666:+_ENSG00000090266_ENST00000247866|hu_hu|hu_hu_hu_mus_False|78_108 (ssRNA)
# RNA: GGGAGUUCUACAGUCCGACGAUCUGCGUACAGAGUGCCAGAGAGUUUACAGUGUCAGUCUUCAUCAUCAGGAGGGAUUCCCAGUUCUUCAUCUGUCCACUGUGAAGGAUCUGGAUAUGAAAAGUGACCCAGCACAGCAUCCGACAACAGAGGAUUGAGCAUCA
# B10: chr5:128440902:128440903:+_ENSG00000066583_ENST00000173527|hu_mus|hu_hu_hu_mus_True|58_98 (ssRNA)
# RNA: GGGAGUUCUACAGUCCGACGAUCUUGAACGGUGCUGCCAAGACCUUUGGGGUAUUGUUCCGUUAUGAUAACUGGAAUUCCUAAAAUCCGAGCUCCUUGCAACAGUCUCUGUCCCACACUAAUGAUGUCCCCAAAGUAUUUGAUCAACAGAGGAUUGAGCAUCA
# B11: chr14:76904430:76904431:+_ENSMUSG00000022010_ENSMUST00000022587|mus_mus|mus_mus_mus_hu_True|38_38 (ssRNA)
# RNA: GGGAGUUCUACAGUCCGACGAUCUGCAGCCAAAAACACCCUCGUGGAAAAAAAGAGGGAACACCAGCAGCCUUGUAUAAGCUAGAUAAAAUCUUCUAGCUGUCUGCAGCCCAGGGAGAAACAGAAAACGGCAGCCCUAAUUUACAACAGAGGAUUGAGCAUCA
# B12: chr9:72466633:72466634:+_ENSMUSG00000037674_ENSMUST00000093820|mus_hu|FALSE|FALSE (ssRNA)
# RNA: GGGAGUUCUACAGUCCGACGAUCCUGAUAAGACUGUCCAGGCACAGCAAAAGCAUGAGGUUUCCUGAAACGGUCUUCCACUAGUUCCUGAUAGCUUGGGAGAAUACCAUGGCCAGAAACUGAUGAAUUACCAACCCCACUAUACAACAGAGGAUUGAGCAUCA
# B13: chr14:45754706:45754707:-_ENSMUSG00000021830_ENSMUST00000139526|mus_mus|motif|central (ssRNA)
# RNA: GGGAGUUCUACAGUCCGACGAUCGUAACUAGACGGAAGAUAUGCAGAUCCCACUGUGCUACAGGCUACUACAAGGUUGCGGAUUAUGCAACCUUGGUGACUAAUGACAUUAAAAGAAAGACAAUUCUUUGAUGGAGGAUCCAUCAACAGAGGAUUGAGCAUCA
# B14: chr10:33190432:33190433:-_ENSG00000150093_ENST00000302278|hu_mus|hu_hu_hu_mus_True|1_78 (ssRNA)
# RNA: GGGAGUUCUACAGUCCGACGAUCUACAUUUUCCAAACCUGCAUGUGAAUAAAACCCUGGCAAUAUUGCCCCAAAACUACCCUACUGUGACUAAGAUGCUGCUGCUGUGAGCUUGGUGUUGCAAAAUCCGCCUGAGUCAGUACUCAACAGAGGAUUGAGCAUCA
# B15: 176756163_176763977_1184_CDS_ENSG00000177565_ENST00000430069|human|control|control (ssRNA)
# RNA: GGGAGUUCUACAGUCCGACGAUCAUCUGUACUACAAGAAGCAAAGGUGUUGUUGCUCUGCCAAUCAACAUCCAAUGCUGGUGCUGAAUGAAAAGGAAACUGUUGCUUGGCUUCACCAGUAUGUGCGUCCCAAAUAAUUGUAGUCAACAGAGGAUUGAGCAUCA
# B16: chr2:47635579:47635580:+_ENSG00000095002_ENST00000543555|hu_hu|FALSE|FALSE (ssRNA)
# RNA: GGGAGUUCUACAGUCCGACGAUCACUCUAUACUGACGAACCAGAAGAAGAUCUUUUACAAAAGAUUCAAAAUUCAUUUUACUAAGCACAACACUCUGCAGAUUCUUUGCUCCUGCCGGCCCCAUGUACUUGAUCACCCCCUGGCAACAGAGGAUUGAGCAUCA
# B17: chr7:56126124:56126125:+_ENSG00000146731_ENST00000540286|hu_mus|FALSE|FALSE (ssRNA)
# RNA: GGGAGUUCUACAGUCCGACGAUCUUGAUUAAUAACGACAAAUCCUUUAUCUGAGUCACCACAGACUUUCUUUUUCAGCUCUAUGAUUUUUUUAACUCUAUCUUCAAUGAAUUUUCUUUCAGCCUUUACUAGUUUUUCUCUCUCCAACAGAGGAUUGAGCAUCA
# B18: chr18:35731935:35731936:+_ENSMUSG00000037236_ENSMUST00000166793|perfect_dup|motif|central (ssRNA)
# RNA: GGGAGUUCUACAGUCCGACGAUCAGGGAGUGGACCUCUACUUCCAAUGUUAAAUAUAGACUGCAAAUUAUGGGAAGAAGUACGGGCAGAAGACAGUGCACUAUGAGCUCCUUGUUGAUUCAAUGAAGAACUCAUUCCAAGAUUCAACAGAGGAUUGAGCAUCA
# B19: chr1:111986530:111986531:-_ENSG00000116455_ENST00000235090|hu_hu|motif|central (ssRNA)
# RNA: GGGAGUUCUACAGUCCGACGAUCACUGCAGCCAAUCUGUGAUGCUGGCUUGGGACAGCGGGUAUCCCAGAGUAAAAUUCGGUUGUCCUCGCUGCAUGAAAGAAACACAGAGUCCUUGUGAGGAGAGGCAGCAACACAAGUGACCAACAGAGGAUUGAGCAUCA
# B20: chr15:66811301:66811302:+_ENSG00000174442_ENST00000446801|hu_hu|FALSE|FALSE (ssRNA)
# RNA: GGGAGUUCUACAGUCCGACGAUCCUCAGCUCCUAGCCAACAAGUACCUUCAGGAUCUGAACUGUCACAUCUUACCCAAAGGGGAGGAAGGGCAGUAACUGGCAGAUUAAUCUUCAAAUGGGUCAUAUUAGGAUUGUGAGCCAUCAACAGAGGAUUGAGCAUCA
# B21: chr2:53077437:53077438:+_ENSMUSG00000026960_ENSMUST00000028336|mus_mus|motif|central (ssRNA)
# RNA: GGGAGUUCUACAGUCCGACGAUCACAUUUAAAGCUUAAUUAAUAACAACAAGAACCCUUGAUAUGACAAGUACAGUAUCGGUAAUAUAUUACAACAUACAUAUUACAGUUAAAUUAUAUGUACACAUACAGAGUAUCAAAAUACAACAGAGGAUUGAGCAUCA
# B22: chr5:134191040:134191041:+_ENSG00000181904_ENST00000394976|hu_hu|motif|central (ssRNA)
# RNA: GGGAGUUCUACAGUCCGACGAUCAAAAGCAGCAGUGCCACAGCCAUAACCAAGAUCGGCAAGACGGGAUAGAGCUUUAAUGCGGCCUGGAGGUCUGCCUGGGCUGACUUUGUAUCCCGCAGCUUUAGUUGUCCCCAAAGGUCUCAACAGAGGAUUGAGCAUCA
# Molecular target: T1, UNK ZnF1-3
# Assay: nsRBNS (natural sequence RNA bind-n-seq); RBNS binding buffer (assumed for nsRBNS): 25 mM Tris pH 7.5, 150 mM KCl, 3 mM MgCl2, 0.01% Triton X-100, 500 ug/ml BSA, 20 U/ml SUPERase-In, 4 C; UNK is unkempt and MSI1 is Musashi-1; names of the RNAs are library labels; protein concentration not given here; high values mean tight binding
row,Binder,binding signal [enrichment R]
1,B1,1.04
2,B2,0.695
3,B3,0.543
4,B4,0.628
5,B5,0.344
6,B6,0.57
7,B7,1.23
8,B8,1.5
9,B9,1.25
10,B10,0.895
11,B11,2.8
12,B12,0.925
13,B13,0.906
14,B14,1.13
15,B15,0.939
16,B16,1.54
17,B17,0.506
18,B18,1.11
19,B19,1.94
20,B20,1.45
21,B21,1.42
22,B22,1.39
